Reference: PubChem BioAssay AID1362 (SRMLSC, 2008)
The other results are listed elsewhere or left out. Further columns of the screen follow, without active or inactive calls. The list favours compounds with an active or inconclusive main result.

Assay: growth inhibition of WT strain, primary screen, mitochondrial fusion inhibitor project, WT and mutant strains, chemical genetic (AID 1362); note: tested in S. cerevisiae
Details: mitochondrial fusion phenotypic screen, at 10 µM

Row | SMILES | inhibition [%]
1 | Cc1ccc(-c2cc(C(F)F)n3ncc(C(=O)N4CCN5CCCC5C4)c3n2)cc1 (stereo unspecified) | -5.39
2 | c1csc(CNc2nc(-c3cccs3)nc3ccccc23)c1 | 63.8
3 | CCOC(=O)CN(C)C(=O)CCc1nnc(-c2ccsc2)o1 | 42.2
4 | COc1ccc(-c2csc3nc(-c4cccnc4)nc(Cl)c23)cc1OC | 25.4
5 | Cc1ccc(-c2[nH]c3ccccc3c2C(C[N+](=O)[O-])c2ccco2)cc1 (stereo unspecified) | 49.1
6 | N/C(=N\OC(=O)c1cc(-c2ccccc2)nc2ccccc12)c1ccccn1 | 43.5
7 | Clc1ccc(-c2n[nH]c3c2CCCC3)cc1 | 61.1
8 | COc1ccc2cc3c(N)nn(C(=O)C4CCC(C(C)(C)C)CC4)c3nc2c1 (stereo unspecified) | 74.1
9 | CCCCCOc1ccc2oc(=O)c3c(c2c1)CCCN3C(=O)CN1CCCC(C(=O)OCC)C1 (stereo unspecified) | 7.03
10 | CCCCCCCOC(=O)C[N+](C)(C)CCOC1CC2CCC1(C)C2(C)C (stereo unspecified) | 38
11 | Cc1cc(C)c2nc(C(F)(F)F)nc(N3CC(C)OC(C)C3)c2c1 (stereo unspecified) | 19.9
12 | Cc1ccc(NC2=CC(=O)C(=O)c3ccccc32)cc1 | 57.2
13 | O=C(CSCc1cccc(Cl)c1)Nc1ccccc1-c1ccccc1 | -4.28
14 | CC(C)c1ccc(NC(=O)c2sccc2-n2cccc2)cc1 | -9.03
15 | CC1CCc2nc(NC(=O)CN3CCN(c4ccc(F)cc4)CC3)sc2C1 (stereo unspecified) | 6.64
16 | CC(C)C1OC(c2cccc(NC(=O)c3cccs3)c2)OCC1(C)C (stereo unspecified) | 4.59
17 | O=C(COc1ccccc1)Nc1ccccc1Oc1ccccc1 | 23.9
18 | COC(=O)Cn1ccc(N(C)C)c(C#N)c1=O | 9.1
19 | O=C(CC(Nc1ccc(F)cc1)c1ccccc1)c1ccccc1 (stereo unspecified) | 17.6

Row | SMILES | inhibition [%]
20 | Clc1ccc(/C=N/N2CCN(Cc3ccccc3Cl)CC2)cc1 | 65.8
21 | N/C(Cc1ccc(Cl)cc1Cl)=N\OC(=O)c1ccccc1F | 84
22 | O=C(Nc1nc(=S)ss1)c1c(F)cccc1F | 15.6
23 | N#CC1=C(N)NC(SCC(=O)c2ccc(Br)cc2)=C(C#N)C12CCCCC2 | -7.27
24 | CCOC(=O)N1CCN(S(=O)(=O)c2ccc(C)cc2)C1c1ccc(OC)cc1 (stereo unspecified) | 21
25 | CCCCNC(=S)N1CCn2cccc2C1c1ccc(F)cc1 (stereo unspecified) | 27.9
26 | O=C(/C=C/Nc1cccc(C(F)(F)F)c1)C(F)(F)F | -2.43
27 | Cc1cc(Nc2ccccc2)nn1C(=O)c1ccc(Cl)cc1 | 52.5
28 | CCOC(=O)c1c(C)oc2c1c(C(c1cccnc1)N1CCOCC1)c(O)c1ccccc12 (stereo unspecified) | 28.1
29 | CC(C)(C)N=C1NN=C(c2cc3ccccc3o2)CS1 | 8.08
30 | O=C(NCc1ccccc1)c1ccc(C(=O)N(C2CCCCC2)C2CCCCC2)cc1 | 5.6
31 | C/C(=N\NC(=S)NCc1ccccc1)c1ccc2ccccc2c1 | 56.5
32 | CCN(CC)c1nc(-c2ccccc2)ncc1S(=O)(=O)c1ccc(C)cc1 | 10.1
33 | Cn1c(N/N=C/c2cc3ccccc3nc2Cl)nc2ccccc21 | 62.3
34 | Cc1ccc(C)c(N2CCN(C(=O)C3CCCCN3S(=O)(=O)c3ccc(F)cc3)CC2)c1 (stereo unspecified) | 14
35 | CCC(C)n1cnc2c(c1=O)c1nc3ccccc3nc1n2Cc1ccc(OC)cc1 (stereo unspecified) | 52.7
36 | Cc1cc(N2C(=O)C=CC2=O)c([N+](=O)[O-])cc1C | 3
37 | CC(NS(=O)(=O)c1ccc(Br)cc1)C(N)=O (stereo unspecified) | 19.5
38 | Cc1ccccc1OCCCCc1c(C)n[nH]c1C | 70.8

Row | SMILES | inhibition [%]
39 | CCn1c(Sc2nc(C)nc3scc(-c4cccs4)c23)n[nH]c1=O | 69.9
40 | O=C(c1ccc(-c2nnc(-c3ccccc3)o2)cc1)N1CCCCCC1 | 1.08
41 | OC(COCc1ccc(Cl)cc1)CN1CCN(CC(O)COCc2ccc(Cl)cc2)CC1 (stereo unspecified) | 56.6
42 | CCCC(c1nnnn1CC1CCCO1)N1CCN(c2cc(Cl)ccc2C)CC1 (stereo unspecified) | 45.2
43 | Cc1cc(C(=O)Nn2c(C3CCCCC3)nc3ccccc3c2=O)ccc1[N+](=O)[O-] | 24.2
44 | CSc1nc(Sc2ccccc2Cl)c2ccccc2n1 | 18.2
45 | CCCn1c2c(c(O)c(C(=O)Nc3nccs3)c1=O)CCCC2 | 18.5
46 | COc1ccc(NC(=O)COC(=O)c2c3c(nc4ccccc24)CCCC3)cc1Cl | 42.1
47 | CN(C)S(=O)(=O)c1cccc(C(=O)NCC2CCCO2)c1 (stereo unspecified) | -2.97
48 | Cc1ccc(-c2nnc(SCC(=O)N3CCOCC3)nc2-c2ccc(C)cc2)cc1 | 3.54
49 | c1ccc2c(CSc3ncnc4nc[nH]c34)cccc2c1 | 55.1
50 | COc1ccccc1-c1ccc(SCc2cccc(C)c2)nn1 | 22.3
51 | CCOC(=O)c1c(C)[nH]c(N=Nc2ccccc2)c1C | 63.3
52 | CN1CC(c2ccccc2)C2(SC(=S)N(Cc3ccco3)C2=O)C12C(=O)Nc1ccccc12 (stereo unspecified) | 27.9
53 | COCCN(C(=O)Cc1cccs1)C(C(=O)NCc1ccc(OC)cc1)c1ccccc1 (stereo unspecified) | 98.7
54 | Clc1ccc2nc(-c3ccccn3)c(Nc3ccc4c(c3)OCO4)n2c1 | 61.9
55 | Cc1ccc(N=Nc2ccc(O)c3ncccc23)cc1 | 61.7
56 | CCCC1(CCC)NC(=O)N(CC(=O)Nc2cccc(OC)c2)C1=O | -3.05
